{
  "source": "PubChem BioAssay (NCI)",
  "key": {"U251 CNS": {"system": "U251 CNS", "experiment": "NCI-60 one-dose screen, 48 h (100 = growth as untreated, 0 = no growth, -100 = all killed)", "conditions": "25 µM"}, "SK-MEL-5 melanoma": {"system": "SK-MEL-5 melanoma", "experiment": "NCI-60 one-dose screen, 48 h (100 = growth as untreated, 0 = no growth, -100 = all killed)", "conditions": "0.25 µM"}},
  "note": "More than one record can exist for a structure, and the calls need not agree.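 Treatment: one concentration, 48 hours, 96-well format. Scoring: percent growth, with anything below 10 considered active.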 Some entries of the source have several records that differ or are many. They are shown here; other results are not. The source may hold further records. This drug was run again and again over the years, at the concentration stated with the values; each value is one run. Brackets with × count equal records among those shown.",
  "data": [
    {"smiles": "COc1cccc2c1C(=O)c1c(O)c3c(c(O)c1C2=O)C[C@@](O)(C(=O)CO)C[C@@H]3OC1CC(N)C(O)C(C)O1", "note": "(stereo partly specified)", "values": [
      {"measurement": "growth", "setting": "U251 CNS; runs of 1992", "value": "active: -23.4, -45.2, -32.7, -3.22, 2.06, -33.7, -29.6, -45.4, -34.6 (2×), -4.78, -11.4, -55.1, -40.5 (2×), -18.1, -22 (3×), -9.79, -20.6, -42.1, -23.9, -37.5, 0.512, -15.4, -51.9, -16.5, -36.3, -25.1, -7.22, -28.1, -39.3, -29.5, -19.6 (3×), -32.9, -6.36, -27.6, -40.3, -25.9, -18.9, -8.3, -44.5, -51.5, -38, -29.3, -14.3, -1.56, -13.8, -30.1, -20.3, -23, -26.7, -42.2, -33.5, -27.7, -2.31, -68.8, -35.1, -31.5, -26.9, -21.7, -13.6, -30.4, -35.3, -48, -24.1, -35.7, -35.2 (2×), -43.8, -37, -17.9, -22.4, -20.1, -11.1, -37.6, -31.1, 2.76, -8.05, -51.1, -10.9, -37.7, -38.2, -34, -25.7, -24.8, -25, -54.7, -39.7, -34.9, -42.7 (2×), -66.5, -37.4, -29.7, -22.7, -34.4, 3.61, 3.18, -49.7, -31.7 (2×), -16.9, -51, -55.5, -58.9, -60.9, -1.08, -30.3, -20.8, -47, 3.44, -5.81, -28.8% and inactive: 11.9%, 37.2%"},
      {"measurement": "growth", "setting": "U251 CNS; runs of 1993", "value": "active: -46.8, -29.3, -18.3, -12.6 (2×), -7.66, -48.6, 0.843, -1.31, -31.3, -40.7, -10.6, 6.42, -0.859, -48.3, -30.4, -15.5, -15.4, -28.3, -22.2, 4.59, -2.64, 1.48, -5.35, -19.4, -46.5, -13.4, -24.7, -40, -18.9, -38.7, -21.3, -14.2, -26.9, -29.9, 2.57, -44.6, -18.7, -20.7, -10.1, -49.7 (2×), -29.8, -26.7, -49.6, -24.3% and inactive: 104%"},
      {"measurement": "growth", "setting": "U251 CNS; runs of 1994", "value": "active: -28.5, -16.9, -7.23, -46.2, -24.2, -19.3 (2×), -25.8, -44.9, -71.9, 0.268, -47.3, -30.8, -30, -6.8, -58.7, -34.7, -62, -40.1, -26.7, -59.4, -11.2, -31.9, -24.7, 8.9, -17.7, -33.2, 1.99, -11.6% and inactive: 89.7%"},
      {"measurement": "growth", "setting": "U251 CNS; runs of 1995", "value": "active: -10.2, -3.4, -26.9, 9.71, -49.9, -42.4, -9.49, -24.8, -38.3, 0, -20, -3.36, -15.4, -29.7, -28.7, 1.59, -21, -25.7, -17.5, -79.6, -12.5, 3.92, -34, -19.6, -4.69, 1.79, 1.08, -4.87, -10.6, -17.9, 4.56, -32.5, -35.5, -18.1, -59.5, -30.1, -9.64, -32.7, -0.493% and inactive: 13.8%"},
      {"measurement": "growth", "setting": "U251 CNS; runs of 1996", "value": "active: -21.2, 0.84, -25, -7.01, -15.1, -2.6, 0.153, -29.7, -34.3, -16.5, -37.6, -36.6, -5.5, -14, -32.6, -52.4, 6.66, -30.1, -21.1, 1.07, -25.1, -21.7, 0.798, -20.9, -14.2, -13.8, -15.4, -19.7 (2×), 4.8, -6.72, -1.05, -4.37, 7.97, -15.5, -7.86, -8.44, -39.3, -37, 2.13, -37.2, -11.9, 2.48, -3.4, -14.9, -12.2, -18.9, 4.52, -28.5, 0.279, -20.2, -41.2, -24.1% and inactive: 99.9%, 11.6%"},
      {"measurement": "growth", "setting": "U251 CNS; runs of 1997", "value": "active: -49, -18.8, -35.2, -21.6, -24.3, 1.93, 1.56, -3.36, -35, -40.6, 5.89, -38.1, -25.2, -44.4, -20.2, -26.7, -36.2, -14.9, -8.22, -44.9, -24, -39.3, -23, -26.1, -33.9, -7.67, 3.86, 0.57, -34.2, 1.07, -13.4, -13, 4.11, -21.8, -67.9, -15.4, -20.5, -7.92, -7.95, -15.1%"},
      {"measurement": "growth", "setting": "U251 CNS; runs of 1998", "value": "active: -58.7, -35.4, 0.452, 0, 0.539, 0.957, -49.1, -55.7, -0.595, -39.2, 3.26, -36.2, 3.42, -57.6, -49.8, -37.2, 7.79, -42.4, -41.2, -9.23, 6.54, 3.1, -20.1, -27.4, 3.05% and inactive: 12.3%, 19.8%"},
      {"measurement": "growth", "setting": "U251 CNS; runs of 1999", "value": "active: -66.3, -58.9, -32.7, -100 (2×), -19.1, -63.6, 1.87 (2×), 2.79, -74, -93.8, -14.1, 1.66% and inactive: 12%"},
      {"measurement": "growth", "setting": "U251 CNS; runs of 2000", "value": "active: -100% (3×), -68.5%"},
      {"measurement": "growth", "setting": "SK-MEL-5 melanoma; runs of 2006", "value": "active: 6.31% and inactive: 19.1%"},
      {"measurement": "growth", "setting": "SK-MEL-5 melanoma; runs of 2007", "value": "active: 9.04, 7.52, -12.7, 8.76, -24, 8.73, 2.29% and inactive: 43.4, 29.7, 18.9, 29.8, 10.8, 24.6, 26.5, 32.5, 28.4, 18.4 (2×), 36, 20.1, 30.2, 34 (2×), 33.6, 49.7, 52.3, 39.5, 40.9, 46.7, 43.8, 40.8, 39.9, 40.7, 25.6, 16.6, 12.5, 20, 28.5, 49.6, 33.8%"}
    ]}
  ]
}
